Laboratory results: PubChem BioAssay AID1346428 (National Center for Advancing Translational Sciences (NCATS), 2018)
Screen size: about 48,000 compounds; about 1,200 (2.5%) were called active. Not shown: some 2% with an inconclusive outcome.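 Rule for the calls: active = activation of at least 60% and not above a set upper limit (about 1 call in 100 departs from these limits); inconclusive = activation of 40% to 60%, or above that upper limit; inactive = activation under 40%.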 The list shows a part of the results.

What follows are molecules tested against Probable G-protein coupled receptor 32 (Homo sapiens) (UniProt O75388) (assay: qHTS for Agonists of Human Resolvin D1 Receptor DRV1). Settings: CHO-K1 GPR32 beta-arrestin PathHunter luminescence, 90 min; at 76.9 µM; stronger effect = higher value; zero percent set by DMSO-only wells.
UniProt O75388, sequence (O75388 whole entry, looked up): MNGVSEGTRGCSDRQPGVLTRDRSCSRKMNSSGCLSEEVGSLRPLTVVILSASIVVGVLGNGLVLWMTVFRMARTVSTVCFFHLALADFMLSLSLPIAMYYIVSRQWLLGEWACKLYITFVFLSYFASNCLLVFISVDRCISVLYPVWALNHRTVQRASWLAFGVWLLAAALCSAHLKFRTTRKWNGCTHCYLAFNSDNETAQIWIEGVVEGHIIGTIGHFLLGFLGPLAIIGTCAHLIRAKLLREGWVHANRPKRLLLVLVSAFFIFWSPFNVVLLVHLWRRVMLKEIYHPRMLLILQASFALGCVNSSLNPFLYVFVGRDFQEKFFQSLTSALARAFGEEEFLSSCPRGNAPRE
Procedure, shortened: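 Using DMSO wells as EC0, agonist-induced signal was taken as chemiluminescence from beta-Gal reconstituted upon beta-arrestin recruitment to GPR32 in CHO-K1 cells after 90 min compound treatment.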
`Cc1ccc(N(CC(=O)Nc2ccc(C)c(Cl)c2)S(=O)(=O)c2cccs2)cc1` was tested, and the activation was inactive: 6.55%.
With `NO` the activation was inactive: 13.6%.
For `COc1cccc(NC(=O)Cn2c(=O)n(-c3ccccc3)c(=O)c3c2c2cc(OC)ccc2n3C)c1`, the activation was inactive: 3.39%.
With `O=S(=O)(c1ccc(-c2cnc(C3CC3)o2)cc1)N1CCN(c2ccccc2)CC1` the activation was inactive: -30.4%.
With `CC1=C(C(=O)OC2CCCC2)C(c2ccccc2C(F)(F)F)CC(=O)N1` (configuration not stated) the activation was active: 95.9%.
For `Cc1ccc(OCC(=O)Nc2cccc(C(=O)OCc3cc(=O)n4c(C)csc4n3)c2)cc1`, the activation was inactive: -12.2%.
For `CCc1cccc(NC(=O)c2ccc3c(c2)c(C)c(C)n3Cc2ccc(F)cc2)c1`, the activation was inactive: -16.8%.
In the case of `CCOc1ccccc1NC(=O)c1c(NC(=O)Cc2ccc(OC)cc2)sc2c1CCC2`, the activation is reported as inactive: 0.791%.
`Cc1ccc(CNC(=O)CN2N=C(c3ccccc3)CCC2=O)cc1` was tested, and the activation was inactive: -7.77%.
`CC(=O)c1ccc(N2CCN(c3ncnc4c3cnn4-c3cc(Cl)ccc3C)CC2)cc1` was tested, and the activation was inactive: 27.2%.
`Cc1ccccc1OCC(=O)OCc1cc(=O)n2nc(-c3cccs3)sc2n1` was tested, and the activation was inactive: -18.6%.
With `COc1ccccc1CNC(=O)c1nnn(CC(=O)Nc2c(C)cccc2C)c1N` the activation was inactive: -2.25%.
With `Cn1c(C(=O)Nc2ccc(OC(F)(F)F)cc2)cc2c(=O)n3ccccc3nc21` the activation was inactive: -1.08%.
For `CCOc1ccc(NC(=O)N2CCC(N3CCCCC3)CC2)cc1`, the activation was inactive: -1.71%.
For `Cc1cc(NC(=O)C2CCCN(S(=O)(=O)c3cccc4nsnc34)C2)ccc1Br` (configuration not stated), the activation was inactive: 14.4%.
In the case of `O=C(Nc1cc(Cl)cc(Cl)c1)c1ccc(F)c(S(=O)(=O)N2CCN(c3ccccc3F)CC2)c1`, the activation is reported as inactive: -12.3%.
`O=C(c1ccc2c(c1)N(Cc1ccc(Cl)cc1)C(=O)c1ccccc1S2(=O)=O)N1CCN(c2ccccn2)CC1` was tested, and the activation was inactive: -12.3%.
`Cc1cccc(CSc2nnc3[nH]c(=O)cc(-c4ccccc4)n23)c1` was tested, and the activation was inactive: 3.26%.
In the case of `COc1cc(-c2nc3ccc(Cl)cn3c2Nc2ccc3c(c2)OCCO3)ccc1O`, the activation is reported as inactive: -19.3%.
`Cc1ccc(NC(=O)COc2ccc3oc4c(c3c2)CCCC4)cc1C` was tested, and the activation was inactive: 8.98%.
In the case of `Cc1ccc(CN2COc3c(Cl)cc4c(-c5ccccc5)cc(=O)oc4c3C2)cc1`, the activation is reported as inactive: 1.42%.
In the case of `O=C(Cn1ncc2c3ccccc3n(Cc3ccc(F)cc3)c2c1=O)NCCCN1CCCCC1`, the activation is reported as inactive: -15.4%.
In the case of `CCN(CC)CCNC(C(=O)OCCC(C)C)c1ccccc1` (configuration not stated), the activation is reported as inactive: -3%.
`N#Cc1c[nH]n2c(NC3CCCC3)c(-c3ccc(Cl)cc3)nc12` was tested, and the activation was inactive: -20.1%.
In the case of `Cc1ccc(CNc2nc3ccc(C)cc3n3nnnc23)cc1`, the activation is reported as inactive: 13.7%.
In the case of `CCc1ccc(NC(=O)C(=O)NCCc2sc3nc(-c4ccc(OC)cc4)nn3c2C)cc1`, the activation is reported as inactive: -8.96%.
In the case of `CCOc1ccccc1NC(=O)N1CCC2(CC1)Oc1ccccc1C(=O)N2Cc1ccccc1F`, the activation is reported as inactive: -22.8%.
With `CC1=C(C(=O)Nc2ccccc2)C(c2ccc(O)cc2)n2nc(SCc3ccccc3)nc2N1` (configuration not stated) the activation was inactive: 14.9%.
With `Cc1ccc(CCNC(=O)c2c(C)nn(-c3ccc(F)cc3)c2-n2cccc2)cc1` the activation was inactive: 18%.
In the case of `O=C(CCS(=O)(=O)c1cccc2nonc12)Nc1ccc(Br)cc1`, the activation is reported as inactive: -17.4%.
For `Cc1ccc(NS(=O)(=O)c2ccc(-c3cc(C)no3)cc2)c(Br)c1`, the activation was inactive: 6.89%.
`O=c1[nH]c(SCc2ccc([N+](=O)[O-])cc2)nc2c1CCCC2` was tested, and the activation was inactive: 10%.
With `Cc1ccccc1NC(=O)CSc1ccc(-c2cccs2)nn1` the activation was inactive: -4.17%.
In the case of `COc1ccc(Cl)cc1NC(=O)CCn1c(=O)oc2ccccc21`, the activation is reported as inactive: 3.27%.
In the case of `COc1ccc(NC(=O)c2cc(C3CC3)nc3c2c(C)nn3-c2ccccc2)cc1OC`, the activation is reported as inactive: -16.7%.
With `COc1ccc(NC(=O)Nc2nnc(N(CC(C)C)CC(C)C)s2)c(OC)c1` the activation was inactive: -34.5%.
In the case of `CCN(C(=O)c1cc2c(s1)-c1ccccc1OC2)c1cccc(C(F)(F)F)c1`, the activation is reported as inactive: -16.7%.
With `O=C(CSc1nnc(COc2ccccc2)o1)Nc1cc(C(F)(F)F)ccc1Cl` the activation was inactive: -66.6%.
`Cc1ccc(CNC(=O)Cn2cccc2C(=O)c2ccccc2C)cc1` was tested, and the activation was inactive: -17.3%.
For `Cc1ccc(NC(=O)c2c(NC(=O)C(F)(F)F)sc3c2CCCCC3)cc1`, the activation was active: 61.6%.
For `O=C(Cn1c(-c2cccs2)cc2ccccc21)NCCCN1CCN(c2ccccc2F)CC1`, the activation was inactive: -0.795%.
`O=C(CSc1nccn1Cc1ccccc1)Nc1ccc2c(c1)OCCO2` was tested, and the activation was inactive: -4.87%.
With `O=C(NCCCN1CCN(c2ccccc2F)CC1)c1ccc2nc(N3CCCCC3)sc2c1` the activation was inactive: 1.5%.
`O=C(Nc1ccc(C(F)(F)F)cc1)C(Cc1ccccc1)n1cccc1` (configuration not stated) was tested, and the activation was inactive: -7.26%.
For `CC(=O)Nc1cccc(C(=O)NCc2ccc3c(c2)CCN3C(=O)c2ccc(F)cc2)c1`, the activation was inactive: -27.2%.
For `COc1cccc(NS(=O)(=O)c2ccc3[nH]cc(C(=O)N4CCCC4)c(=O)c3c2)c1`, the activation was inactive: -3.92%.
With `Cc1c(CCNC(=O)C(C)(C)C)sc2nc(-c3ccc(F)cc3)nn12` the activation was inactive: -8.75%.
In the case of `CCN(C(=O)C1CCCN(c2ncnc3c2nc2n3CCCCC2)C1)c1cccc(Cl)c1` (configuration not stated), the activation is reported as inactive: -11.1%.
For `Cc1cc2c(cc3c(SCc4ccccc4Cl)nnc(C)n32)o1`, the activation was inactive: -18.9%.
For `COc1ccccc1NC(=O)C1=C(C)Nc2nc(SCc3ccccc3)nn2C1c1ccncc1` (configuration not stated), the activation was inactive: 26%.
For `CC(=O)c1ccc(NC(=O)COCc2cc(-c3ccc(F)cc3)on2)cc1`, the activation was inactive: -1.55%.
For `COc1cc(OC)c(N(C)C(=O)c2sc3nc4n(c(=O)c3c2C)CCCCC4)cc1Cl`, the activation was inactive: -8.38%.
With `COc1cc(NC(=O)Cn2nc3c(cc2=O)CC(C)CC3)cc(OC)c1OC` (configuration not stated) the activation was inactive: -8.13%.
With `Cc1cc(Nc2cc(F)ccc2C)nc(-n2nc(C)cc2C)n1` the activation was inactive: -27.3%.
In the case of `CCn1cc(C(=O)N2CCN(c3ccc(OC)cc3)CC2)c(=O)c2cc(S(=O)(=O)N3CCOCC3)ccc21`, the activation is reported as inactive: -21.2%.
With `Cc1c(C(=O)N2CCC(C)CC2)c(S(=O)(=O)Nc2ccc(OC(F)(F)F)cc2)c(C)n1C` the activation was inactive: -15.3%.
For `CC(C)N(Cc1ccccc1)C(=O)CN1C(=O)CSc2ccc(S(=O)(=O)N3CCCC3)cc21`, the activation was inactive: -30.7%.
`CN(C)S(=O)(=O)N(CC(=O)NCCSc1ccccc1)c1ccccc1` was tested, and the activation was inactive: 1.6%.
With `COc1ccc(OCC(=O)Nc2ccc(-c3nc4cc(C)c(C)cc4o3)cc2)cc1` the activation was inactive: -5.42%.
For `COc1ccc2[nH]cc(CCN=C(NC(=O)c3ccccc3C)Nc3nc(C)cc(C)n3)c2c1`, the activation was inactive: 1.85%.
In the case of `CCSc1nc2c([nH]c3ccccc32)c(=O)n1-c1ccc(F)cc1`, the activation is reported as active: 78.8%.
In the case of `Cc1cc(C)c2c(n1)sc1c(=O)n(-c3ccccc3C(F)(F)F)nnc12`, the activation is reported as inactive: -4.88%.
`CCc1ccc(CNC(=O)C2CCCN(S(=O)(=O)c3ccc4c(ccn4C)c3)C2)cc1` (configuration not stated) was tested, and the activation was inactive: 11.1%.
In the case of `CCCCOc1ccc(CNC(=O)c2ccc3c(c2)N(C)C(=O)C2CCCCN32)cc1` (configuration not stated), the activation is reported as inactive: 1.74%.
In the case of `CCC(=O)N1CCc2cc(CNS(=O)(=O)c3cccs3)ccc21`, the activation is reported as inactive: -7.77%.
For `CCOC(=O)C(CC)Sc1c(CC)cnc2c1c(=O)n(C)c(=O)n2C` (configuration not stated), the activation was inactive: -18.5%.
For `Cc1ccc(OCCSc2nc3ccc(NC(=O)c4ccc(F)cc4)cc3s2)cc1`, the activation was inactive: -2.82%.
For `Nc1c2ccccc2nc2ccccc12`, the activation was inactive: -9.15%.
In the case of `Cc1cccc(C(C)C)c1NC(=O)C(NS(=O)(=O)c1cccc2nsnc12)c1ccccc1` (configuration not stated), the activation is reported as inactive: -61.4%.
`COc1ccc(-c2c(C)c3ccc(O)c(CN4CCCC4)c3oc2=O)cc1OC` was tested, and the activation was inactive: -5.21%.
With `Cc1ccc(Cc2cn3cc(-c4ccc(F)cc4)nc3s2)cc1` the activation was inactive: 17.8%.
With `COc1cccc(-c2cn3ncsc3n2)c1` the activation was inactive: 1.76%.
`COc1ccc(OCc2nc(-c3ccc(-n4cccc4)cc3)no2)cc1` was tested, and the activation was active: 117%.
`CN1CCC(=C2c3ccccc3Sc3ccccc32)CC1` was tested, and the activation was inactive: 8.46%.
In the case of `Cc1ccccc1CSc1ccc(-c2cccs2)nn1`, the activation is reported as inactive: -31%.
`Cc1ccc(NC(=O)Cn2cc(C(=O)C3CC3)c3ccccc32)cc1C` was tested, and the activation was inactive: 3.61%.
With `Cc1cc(C)n(-c2nc(C)c(C)c(=O)n2CC(=O)Nc2ccc(OC(F)(F)F)cc2)n1` the activation was inactive: -10.9%.
In the case of `Cc1cccc(NC(=O)c2cc(S(=O)(=O)N3CCCCCC3)cn2C)c1C`, the activation is reported as inactive: -8.48%.
`Cc1ccc(CNS(=O)(=O)c2cc3c(cc2Cl)NC(=O)CO3)o1` was tested, and the activation was inactive: -7.93%.
In the case of `CC1CCC(C(=O)NC(C(=O)OCC(=O)c2ccc(Br)cc2)C(C)C)CC1` (configuration not stated), the activation is reported as inactive: 26.5%.
For `Cc1ccc(S(=O)(=O)c2cn(CC(=O)Nc3cccc(C)c3)c3cc4c(cc3c2=O)OCO4)cc1`, the activation was inactive: -7.31%.
For `CNS(=O)(=O)c1cn(CC(=O)Nc2ccc(OC)cc2OC)cc1S(=O)(=O)NC`, the activation was inactive: -4.52%.
`CCC(CC)C(=O)Nc1cc(-c2ccccc2F)nn1-c1ccccc1` was tested, and the activation was inactive: -18.1%.
With `Cc1ccc(/C=C/c2onc(C)c2S(=O)(=O)N2CCC(C(=O)Nc3ccc(Br)c(C)c3)CC2)cc1` the activation was inactive: -7.75%.
In the case of `Cc1csc2nc(-c3ccc(NS(=O)(=O)c4cc(F)ccc4F)cc3)cn12`, the activation is reported as inactive: 0.0851%.
In the case of `Cc1ccccc1/C=C(\C#N)c1nc(-c2ccc(Cl)cc2)cs1`, the activation is reported as inactive: 1.54%.
For `CCN(CC)C(=O)Cn1c(=O)n(-c2ccccc2)c(=O)c2c3c(sc21)CCC3`, the activation was inactive: -0.418%.
